Measurements published in PubChem BioAssay AID463173 (ICCB-Longwood Screening Facility, Harvard Medical School, 2010).
The whole screen tested about 52,000 compounds, of which about 4,300 (8.3%) were called active. Cut-off read from the data, not from the text of the source: active = survival mostly below about 52% (no sharp cut-off); inactive = mostly above about 56%. The list shows a part of the results.

These molecules were tested on DeltatarO mutant (assay: growth inhibition of S. aureus wild type versus tarO mutant, primary screen, teichoic acid synthesis inhibitors, RN4220, OD600 (AID 463173)). Conditions: OD600, 18 h, hits give low values, screened at 18.75 µg/mL (by protocol).

SMILES | survival
COCCCn1c(=N)c(C(=O)NC2CCCC2)cc2c(=O)n3cc(C)ccc3nc21 | inactive: 57%
CCOc1ccccc1C1Nc2ccccc2-c2nnc(SCc3ccccc3)nc2O1 (stereo unspecified) | active: 44%
Cc1c(C(=O)NCc2ccccc2)oc2c1-c1[nH]ncc1CC2 | inactive: 64%
Cc1ccc(C)c(N2CCN(C(=O)c3cc4c(=O)n(Cc5cccs5)ccc4nc3C)CC2)c1 | inactive: 99%
Cc1ccc(S(=O)(=O)Nc2cc3c(cc2Cl)n(C)c(=O)c(=O)n3C)cc1 | inactive: 83%
CCOc1ccc2nc(N3CCC(C(=O)Nc4c(C)cccc4C)CC3)sc2c1 | inactive: 80%
O=C(Nc1cccc(F)c1)NC1(C(=O)NCc2ccco2)CCCCC1 | inactive: 87%
Cc1cc(NC(=O)c2ccccc2C)no1 | inactive: 100%
Cc1coc2cc3oc(=O)c(CC(=O)NCc4ccccc4)c(C)c3cc12 | inactive: 79%
CC(=O)N1CCCc2cc(S(=O)(=O)N3CCCC(C(=O)Nc4ccc(C)c(C)c4)C3)ccc21 (stereo unspecified) | inactive: 74%
CC(C)(C)c1ccc(S(=O)(=O)Nc2ccc(O)c(Sc3nc4ccccc4s3)c2)cc1 | active: -4%
Cc1ccc(C(=O)Nc2ccc3oc(-c4cccnc4)nc3c2)c(Cl)c1 | inactive: 88%
COc1cccc(-c2cnc(NCc3ccccc3Cl)n2C)c1 | inactive: 51%
O=S(=O)(Nc1cccc(-c2ccc(N3CCOCC3)nn2)c1)c1ccc(F)cc1F | inactive: 62%
CN(C)c1ccc(C(C(=O)NCc2ccccc2)N(Cc2ccco2)C(=O)c2snc(C(N)=O)c2N)cc1 (stereo unspecified) | inactive: 110%
O=C(Nc1nc(-c2ccc(Br)cc2)ns1)c1ccccc1F | inactive: 79%
CCCc1nn2c(C)c(-c3ccccc3)nc2s1 | inactive: 99%
COC(=O)CCN(C(=O)c1c(C)oc2ncnc(N3CCOCC3)c12)c1ccccc1 | active: 8%
Cc1cccc(N2CCN(C(=O)C3CCN(S(=O)(=O)c4ccc5c(c4)oc(=O)n5C)CC3)CC2)c1C | inactive: 91%

SMILES | survival
Cc1cc(C)c2oc(C(=O)Nc3ccc(S(=O)(=O)N(C)c4ccccc4)cc3)cc(=O)c2c1 | inactive: 70%
O=c1c2c3c(sc2n(Cc2cc(=O)n4ccccc4n2)c(=O)n1-c1ccc(Cl)cc1)CCC3 | inactive: 84%
Cc1ccc(-n2ncc(C(=O)N3CCC(c4ccccc4)C3)c2C2CCN(C(=O)OC(C)(C)C)CC2)cc1 (stereo unspecified) | inactive: 77%
CCCCOc1ccc(CNC(=O)c2ccc(NC(=O)N3CCSc4ncccc43)cc2)cc1 | inactive: 90%
CCN(c1cc(C)cc(C)c1)S(=O)(=O)c1nnc(NC(=O)c2cccc(F)c2)s1 | active: 37%
Cc1ccc(OCc2n[nH]c(=S)n2C2CCCCC2)cc1 | inactive: 99%
CCCOc1ccc(C2C(=O)N(C3CCCCCC3)CC(=O)N2CCCOCC)cc1OC (stereo unspecified) | inactive: 102%
Cc1ccccc1NC(=O)c1sc2nc(N3CCOCC3)c3c(c2c1N)CC(C)(C)OC3 | inactive: 75%
CCOc1ccccc1N(C)C(=O)Cn1nc(Cc2cccnc2)c2ccccc2c1=O | inactive: 82%
COC(=O)CSc1nnc2n(-c3ccccc3)c(=O)c3c4c(sc3n12)COC(C(C)C)C4 (stereo unspecified) | inactive: 123%
CC(C)NC(=O)Cn1c(SCC(=O)N2CCc3ccccc32)nc2ccccc21 | inactive: 97%
CCC(=O)N1CCc2cc(S(=O)(=O)N(C)c3cccc(C)c3)ccc21 | inactive: 82%
O=C(/C=C/c1ccccc1)N1CCN(Cc2cc(=O)n3nc(-c4ccccc4)sc3n2)CC1 | inactive: 90%
CCN(c1ccc(C)cc1)S(=O)(=O)c1nnc(NC(=O)c2cccs2)s1 | active: 14%
O=C(O)CCCN1C(=O)C(=O)/C(=C(/O)c2ccccc2)C1/C=C/c1ccccc1 (stereo unspecified) | inactive: 64%
CCOc1ccccc1NC(=O)N1CCN(S(=O)(=O)c2ccc3c(ccn3C)c2)CC1 | inactive: 76%
Nc1c(-c2nc(-c3ccccc3)no2)nnn1CC(=O)Nc1ccccc1 | inactive: 79%
COc1ccccc1CNC(=O)Cn1ncc2c(C)n(Cc3ccccc3Cl)c(C)c2c1=O | inactive: 57%
Cc1ccc(-c2ccc(CCC(=O)O)n2-c2ccc(C(C)C)cc2)cc1 | inactive: 44%

SMILES | survival
Cc1nnc(SCc2ccccc2)n1N | active: 61%
CCN(CC)CCNC(=O)c1cc2c(=O)[nH]c3ccc(C)cc3c2s1 | inactive: 107%
Cc1ccc(NC(=O)/C(C#N)=C\c2ccc(Cl)cc2Cl)cc1C | active: 29%
COc1ccc2c(c1)c1c(c(=O)n(CCc3ccccc3)c(=O)n1Cc1ccc(Cl)cc1)n2C | inactive: 79%
Cc1ccc(-c2nc3c(C)cccn3c2Nc2ccccc2C)s1 | active: 0%
COc1ccc(NC(=O)C(C)Sc2nc(N)cc(=O)[nH]2)cc1 (stereo unspecified) | inactive: 97%
Cc1ccc(F)cc1NC(=O)Cn1c(=O)nc(-c2ccccc2F)c2cc(Cl)ccc21 | inactive: 86%
Cc1cc(=O)[nH]c(SCSc2nc(C)cc(=O)[nH]2)n1 | inactive: 102%
COc1ccc(C2=C(C)C(=O)N(Cc3ccc(C(=O)Nc4cccc(F)c4)cc3)S2(=O)=O)cc1 | inactive: 89%
CC1CCCN(c2nc3c(S(=O)(=O)c4ccc(C(C)C)cc4)nnn3c3ccsc23)C1 (stereo unspecified) | inactive: 54%
O=C(NCc1ccc2c(c1)OCO2)c1ccc2c(c1)N(Cc1cccc(Cl)c1)C(=O)c1ccccc1S2=O (stereo unspecified) | inactive: 75%
Cc1c(Cl)cccc1NC(=O)C1CCCN(c2nnc(-n3c(C)ccc3C)s2)C1 (stereo unspecified) | inactive: 91%
Cc1ccc(CSC2=Nc3ccccc3C3=NC(CCC(=O)NCc4cccs4)C(=O)N23)cc1 (stereo unspecified) | inactive: 94%
O=C(NCC(c1ccc2c(c1)OCO2)N1CCN(c2ccccc2)CC1)C(=O)Nc1cccc(F)c1 (stereo unspecified) | inactive: 66%
CC(=O)Nc1ccc(C(=O)CSc2nnc3scc(-c4ccccc4)n23)cc1 | inactive: 89%
CCN(CCCNC(=O)c1ccc(Sc2ccc(F)cc2)c(NC(C)=O)c1)c1ccccc1 | inactive: 90%
COc1ccc(CNC(=O)Cn2c(=O)nc(-c3ccccc3F)c3cc(Cl)ccc32)cc1 | inactive: 72%
CCN(CC)C(=O)CSc1nc2cc3c(cc2c(=O)n1CCCCCC(=O)NCc1ccc(OC)cc1)OCO3 | active: -1%
